Source: patent US11000038B2, “Pyridone compounds and agricultural and horticultural fungicides containing the same as active ingredients” (priority 2017, dated 2021)

Assays:
[1] = test system: cabbage Alternaria sooty spot fungi (Alternaia brassicicola); test: Test Example C: cabbage Alternaria sooty spot, spray treatment of cabbage plants; assay type: in vivo; conditions: cabbage Alternaria sooty spot, spray treatment of cabbage plants
From the text: [Test Example C] Cabbage Alternaria Sooty Spot
Test plants (cabbage variety: Shikidori) were cultivated until the cotyledons extended after the sowing of seeds.
<Control Value> Control value=100{1−(n/3)}

[2] = test system: wheat brown rust fungi (Puccinia recondita); test: Test Example E: wheat brown rust, spray treatment of wheat plants; assay type: in vivo; conditions: wheat brown rust, spray treatment of wheat plants
[3] = test system: gray mold fungi (Botrytis cinerea); test: Test Example B: tomato gray mold, spray treatment of tomato plants; conditions: tomato gray mold, spray treatment of tomato plants
[4] = test system: grape downy mildew fungus (Plasmopara viticola); test: Test Example G: grape downy mildew, spray treatment of grape plants; conditions: grape downy mildew, 250 ppm spray (2.5 ml/pot), 7 to 10 days after inoculation
[5] = test system: barley powdery mildew fungi (Blumeria graminis f. sp. hordei); test: Test Example D: barley powdery mildew, spray treatment of barley plants; conditions: barley powdery mildew, spray treatment of barley plants

Compound | Test C control value [1] | Test E control value [2] | Test B control value [3] | Test G control value [4] | Test D control value [5]
COCCOc1ccc(C)c(-n2cc(Br)c(=O)c(Cl)c2-c2c(F)cc(OC)cc2F)c1 [Compound 283] | H (H shows the control value of more than 50%) | H (H shows the control value of more than 50%) | H (H shows the control value of more than 50%) | L (L shows the control value of 50% or less) | L (L shows the control value of 50% or less)
Cc1ccc(OCC#N)cc1-n1cc(Br)c(=O)c(Cl)c1-c1c(F)cc(F)cc1F [Compound 284] | H (H shows the control value of more than 50%) | H (H shows the control value of more than 50%) | H (H shows the control value of more than 50%) | H (H shows the control value of more than 50%) | H (H shows the control value of more than 50%)
COCOc1ccc(C)c(-n2cc(Br)c(=O)c(Cl)c2-c2c(F)cc(F)cc2F)c1 [Compound 285, 5-bromo-3-chloro-1-(5-(methoxymethoxy)-2-methylphenyl)-2-(2,4,6-trifluorophenyl)pyridin-4(1H)-one] | H (H shows the control value of more than 50%) | H (H shows the control value of more than 50%) | H (H shows the control value of more than 50%) | H (H shows the control value of more than 50%) | L (L shows the control value of 50% or less)
COCOc1ccc(C)c(-n2cc(Br)c(=O)c(Cl)c2-c2c(F)cc(OC)cc2F)c1 [Compound 286, 5-bromo-3-chloro-2-(2,6-difluoro-4-methoxyphenyl)-1-(5-(methoxymethoxy)-2-methylphenyl)pyridin-4(1H)-one] | H (H shows the control value of more than 50%) | H (H shows the control value of more than 50%) | H (H shows the control value of more than 50%) | H (H shows the control value of more than 50%) | H (H shows the control value of more than 50%)
Cc1ccccc1-n1cc(C)c(=O)c(C)c1-c1ccoc1 [Compound 287] | L (L shows the control value of 50% or less) | H (H shows the control value of more than 50%) | L (L shows the control value of 50% or less) | H (H shows the control value of more than 50%) | L (L shows the control value of 50% or less)
Cc1cccc(F)c1-n1cc(Br)c(=O)c(Br)c1-c1c(F)cc(F)cc1F [Compound 288] | H (H shows the control value of more than 50%) | H (H shows the control value of more than 50%) | H (H shows the control value of more than 50%) | L (L shows the control value of 50% or less) | L (L shows the control value of 50% or less)
Cc1cccc(F)c1-n1cc(Cl)c(=O)c(Br)c1-c1c(F)cc(F)cc1F [Compound 290] | H (H shows the control value of more than 50%) | H (H shows the control value of more than 50%) | H (H shows the control value of more than 50%) | L (L shows the control value of 50% or less) | L (L shows the control value of 50% or less)
Cc1cccc(F)c1-n1cc(Cl)c(=O)c(Cl)c1-c1c(F)cc(F)cc1F [Compound 291] | H (H shows the control value of more than 50%) | H (H shows the control value of more than 50%) | H (H shows the control value of more than 50%) | L (L shows the control value of 50% or less) | L (L shows the control value of 50% or less)
CCOCOc1ccc(C)c(-n2cc(Br)c(=O)c(Cl)c2-c2c(F)cc(F)cc2F)c1 [Compound 292] | H (H shows the control value of more than 50%) | H (H shows the control value of more than 50%) | H (H shows the control value of more than 50%) | L (L shows the control value of 50% or less) | L (L shows the control value of 50% or less)
Cc1ccc(O)cc1-n1cc(Cl)c(=O)c(Cl)c1-c1c(F)cc(F)cc1F [Compound 293] | H (H shows the control value of more than 50%) | H (H shows the control value of more than 50%) | H (H shows the control value of more than 50%) | L (L shows the control value of 50% or less) | L (L shows the control value of 50% or less)
COc1cc(F)c(-c2c(Cl)c(=O)c(Cl)cn2-c2cc(OC)ccc2C)c(F)c1 [Compound 294] | H (H shows the control value of more than 50%) | H (H shows the control value of more than 50%) | H (H shows the control value of more than 50%) | L (L shows the control value of 50% or less) | H (H shows the control value of more than 50%)
COCCOc1ccc(C)c(-n2cc(Cl)c(=O)c(Cl)c2-c2c(F)cc(OC)cc2F)c1 [Compound 296] | H (H shows the control value of more than 50%) | H (H shows the control value of more than 50%) | H (H shows the control value of more than 50%) | L (L shows the control value of 50% or less) | L (L shows the control value of 50% or less)
Cc1ccc(OCC#N)cc1-n1cc(Cl)c(=O)c(Cl)c1-c1c(F)cc(F)cc1F [Compound 297] | H (H shows the control value of more than 50%) | H (H shows the control value of more than 50%) | H (H shows the control value of more than 50%) | L (L shows the control value of 50% or less) | H (H shows the control value of more than 50%)
COCOc1ccc(C)c(-n2cc(Cl)c(=O)c(Cl)c2-c2c(F)cc(F)cc2F)c1 [Compound 298] | H (H shows the control value of more than 50%) | H (H shows the control value of more than 50%) | H (H shows the control value of more than 50%) | H (H shows the control value of more than 50%) | H (H shows the control value of more than 50%)
COCOc1ccc(C)c(-n2cc(Cl)c(=O)c(Cl)c2-c2c(F)cc(OC)cc2F)c1 [Compound 299] | H (H shows the control value of more than 50%) | H (H shows the control value of more than 50%) | H (H shows the control value of more than 50%) | H (H shows the control value of more than 50%) | H (H shows the control value of more than 50%)
Cc1cccc(C)c1-n1cc(Br)c(=O)c(Br)c1-c1c(F)cc(F)cc1F [Compound 301] | H (H shows the control value of more than 50%) | H (H shows the control value of more than 50%) | L (L shows the control value of 50% or less) | H (H shows the control value of more than 50%) | L (L shows the control value of 50% or less)
Cc1cccc(C)c1-n1cc(Br)c(=O)c(Cl)c1-c1c(F)cc(F)cc1F [Compound 302] | H (H shows the control value of more than 50%) | H (H shows the control value of more than 50%) | H (H shows the control value of more than 50%) | L (L shows the control value of 50% or less) | L (L shows the control value of 50% or less)
CCOCOc1ccc(C)c(-n2cc(Cl)c(=O)c(Cl)c2-c2c(F)cc(F)cc2F)c1 [Compound 303] | H (H shows the control value of more than 50%) | H (H shows the control value of more than 50%) | H (H shows the control value of more than 50%) | L (L shows the control value of 50% or less) | L (L shows the control value of 50% or less)
